Assay results as given in PubChem BioAssay AID686970 (National Center for Advancing Translational Sciences (NCATS), 2013).
Out of some 360,000 compounds screened, about 6,000 (1.7%) were called active. The shares of active, inactive and inconclusive entries below differ from those in the screen. The call rests on the fitted dose curve; in most records, active means well fitted cell-killing curve with a large enough effect; inconclusive means small, poorly fitted or top-dose-only effect, or effect the other way; inactive means flat fitted curve, though single readings scatter. No potency is given beside an inconclusive call; the fits are too rough.
Potency means the concentration at half of the fitted maximal effect; tags describe the fitted curve by direction and shape.

Test: qHTS for induction of synthetic lethality in tumor cells producing 2HG: qHTS for the HT-1080-NT fibrosarcoma cell line;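 further: NT is the 2HG producing partner of a matched IDH1 knockdown line; nearly all actives have a fitted effect of over 55% in size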;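 on activity, negative = less viability: 0% = DMSO-treated cells and -100% = media-only wells without cells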
Details: HT-1080-NT fibrosarcoma viability, CellTiter-Glo ATP luminescence, 48 h; activity, negative = less viability: at 46.1 µM (top of the series) unless noted
In short: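 A 48-hour cytotoxicity screen used HT-1080-NT cells plated 2 hours before compound delivery. ATP-based CellTiter-Glo luminescence measured viability, normalized to DMSO and no-cell controls.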
With COc1ccc(CC2(CO)CCN(Cc3ccc4c(c3)CCO4)CC2)cc1 the Potency was inconclusive [cytotoxic, single point]. In the case of O/N=C/CCn1c(=S)sc2ccccc21, the Potency was inconclusive [cytotoxic, single point]. For Cc1cc(C(=O)N/N=C/c2c(CO)cnc(C)c2O)c2ccccc2n1, the Potency was inconclusive [cytotoxic, partial curve]. With O=C(c1ccc(O)c(Br)c1)c1cc(Br)ccc1O the Potency was active: 5.8 µM. With COCCC(=O)N1CCC(Oc2ccc(C(=O)NCc3cc(C)n(C)n3)cc2)CC1 the activity, negative = less viability was inconclusive: -1.35%. For COc1ccc(-n2c(Cc3cccn3C)nnc2SCC(=O)NCC2CCCO2)cc1 (stereo not drawn), the Potency was inconclusive [rising, full curve]. In the case of Clc1ccccc1N/N=C/c1ccc2c(c1)OCO2, the Potency was “inactive”. For Cc1[nH]c(=O)c(C#N)cc1-c1ccncc1, the activity, negative = less viability was inconclusive: 0.0999% [cytotoxic]. For NC(N)=N/N=C/c1ccc(Cl)cc1Cl, the Potency was inconclusive [cytotoxic, single point]. For CCC(C(=O)Nc1ccc(S(=O)(=O)N2CCN(C)CC2)cc1)c1ccccc1 (stereo not drawn), the Potency was “inactive”. In the case of O=C(CCN1C(=O)S/C(=C\c2ccccc2)C1=O)NCCCn1ccnc1, the activity, negative = less viability was inconclusive: 12.4%. With Cc1cccc2sc(N3CCN(C(=O)c4cccs4)CC3)nc12 the Potency was “inactive”. For CCOc1ccc(Cl)cc1CNCCCSc1nc(C)cc(C)n1, the activity, negative = less viability was inconclusive: -31.7% [cytotoxic]. In the case of CCOC(=O)C1=C(C)NC(C)=C(C(=O)OCC)C1C, the Potency was “inactive”. In the case of S=C(Nc1ccc(Cl)c(Cl)c1)NC1CCN(Cc2ccccc2)CC1, the Potency was active: 25.9 µM. In the case of CC(C)(C)OC(=O)NCCCC[C@H](NC(=O)c1nc[nH]c1C(=O)N[C@@H](CCCCNC(=O)OC(C)(C)C)C(=O)OC(C)(C)C)C(=O)OC(C)(C)C, the Potency was “inactive”. In the case of Cc1ccccc1N1CCN(Cc2c[nH]c3ccccc23)CC1, the Potency was inconclusive [cytotoxic, partial curve, poor fit]. For COc1ccc(NC(=O)C(=O)NCCC2CCCCN2S(=O)(=O)c2ccc(F)cc2)cc1 (stereo not drawn), the Potency was inconclusive [cytotoxic, full curve]. In the case of COc1cc2c(cc1OC)CN(c1ccc3ccccc3n1)CC2, the Potency was “inactive”. In the case of Cc1ccc(N/N=C(\C#N)C(=O)c2ccsc2)cc1, the Potency was inconclusive [cytotoxic, single point]. With CCn1ncc(C2=NOC(C(=O)Nc3cnn(C45CC6CC(CC(C6)C4)C5)c3)C2)c1C (stereo not drawn) the Potency was inconclusive [cytotoxic, single point]. With N#CC1=C(N)Oc2cc(Nc3ccccc3)ccc2C1c1ccncc1 (stereo not drawn) the Potency was inconclusive [cytotoxic, single point]. With N#CCCCSc1ncccc1-c1nc2ccccc2[nH]1 the Potency was “inactive”. For O=C(CSc1nc2ccc([N+](=O)[O-])cc2[nH]1)NC1CCCCC1, the Potency was inconclusive [cytotoxic, single point]. In the case of CCOC(=O)c1ccc(NC(=O)CSc2nc(=O)n(CCN3CCOCC3)c3c2CCC3)cc1, the activity, negative = less viability was inconclusive: -32.8% [cytotoxic]. For Cc1ccc(-c2ccnc(-c3ccc(O)cc3)n2)cc1, the Potency was “inactive”. For CCCCCCC(=O)N(O)C1CC(=O)N(c2ccc(Br)cc2)C1=O (stereo not drawn), the activity, negative = less viability was inconclusive: -31.1% [cytotoxic]. In the case of COc1cc(Br)cc(CN2CCN(c3ncccn3)CC2)c1O, the Potency was “inactive”. For N/C(=N\OC(=O)c1ccc(Cl)cc1)c1nonc1N, the activity, negative = less viability was inconclusive: 5.16%. In the case of Cc1cccc(N2CCN(C(=O)CCC(=O)N3Cc4ccccc4Oc4ncccc43)CC2)c1C, the Potency was inconclusive [cytotoxic, single point]. In the case of O=C1/C(=C\c2ccco2)SC(=S)N1C1CCS(=O)(=O)C1 (stereo not drawn), the Potency was inconclusive [cytotoxic, single point]. With COc1cc(S(=O)(=O)N2CCOCC2)ccc1NC(=O)CN1c2cccc3cccc(c23)S1(=O)=O the Potency was “inactive”. For O=C(O)c1ccc(N/N=C/c2ccc(-c3ccc(Br)cc3)o2)cc1, the Potency was active: 25.9 µM. With COCC(C)n1c(C)cc(C(=O)COC(=O)c2c(C)nn(-c3ccccc3)c2C)c1C (stereo not drawn) the Potency was “inactive”. In the case of CCc1ncn(CCc2ccccc2OC)c1C(C)C, the Potency was inconclusive [cytotoxic, partial curve]. With CSc1ccc(CN2CCC2(C)C(=O)NCc2cccc(C(F)(F)F)c2)cc1 (stereo not drawn) the Potency was inconclusive [cytotoxic, single point]. For O=c1c(Cl)c(Cl)cnn1Cc1ccccc1Cl, the Potency was inconclusive [cytotoxic, single point]. With CN(C)N=Nc1nc2c(c(=O)n(C)c(=O)n2C)n1CC1CO1 (stereo not drawn) the Potency was inconclusive [cytotoxic, single point]. With CC1(C)COC(/C=C/c2ccc([N+](=O)[O-])cc2)=N1 the Potency was inconclusive [cytotoxic, single point]. In the case of CC(=O)Nc1ccc(NC(=O)C(C)Oc2ccccc2C(=O)NCc2ccccc2)cc1 (stereo not drawn), the Potency was “inactive”. With OC[C@@H]1CN(Cc2cccs2)C[C@H](n2cnc3c(N4CCN(c5ccccc5)CC4)ncnc32)O1 the Potency was “inactive”. With C[C@]12CC[C@H]3C(=CCc4cc(O)ccc43)[C@@H]1CCC2=O the activity, negative = less viability was inconclusive: -30.2% [cytotoxic]. For Cc1noc(C)c1COc1ccc(C(=O)O)cc1, the Potency was inconclusive [rising, partial curve]. For Cc1cc(C)c(S(=O)(=O)N2C[C@H]3CON(C)[C@H]3C[C@H]2c2ccc(N3CCCCC3)cc2)c(C)c1, the Potency was “inactive”. In the case of CCCCN(CC)CCNC(=O)c1cc2c(-c3ccccc3F)nn(C)c2s1, the Potency was inconclusive [cytotoxic, single point]. In the case of CCOCCOC(=O)c1[nH]c2c(c1C)C(=O)CC(c1ccccc1)C2 (stereo not drawn), the Potency was active: 0.146 µM. With CCO/C(C)=C1/SC(=S)NC1=O the Potency was inconclusive [rising, single point]. In the case of Cn1cc(CN2CCCC(C(=O)Nc3cccc(-c4cc5ccccc5[nH]4)c3)C2)cn1 (stereo not drawn), the Potency was inconclusive [cytotoxic, single point].
